The structures appear in SMILES notation. The campaign covered roughly 52,000 compounds. About 4,300 (8.3%) were called active. Rule as the data show it: active = survival mostly below about 52% (no sharp cut-off); inactive = mostly above about 56%. The list shows a part of the results.

The test system of this test is DeltatarO mutant. Briefly: S. aureus survival, RN4220 and DeltatarO strains – OD600, teichoic acid synthesis inhibitors, primary screen (AID 463173). As to conditions: S. aureus RN4220 wild type/DeltatarO growth, OD600, 18 h, hits give low values, screened at 18.75 µg/mL (by protocol).
As to `Cc1ccc2nc(N(Cc3cccnc3)C(=O)C3CCCCC3)sc2c1`, the survival is inactive: 98%. With `COc1ccc(Br)cc1C1CC(=O)Nc2c1c(C)nn2-c1nc(C)cc(C)n1` (configuration not stated) the figure was inactive: 58%; with `CCn1cc(C(=O)OCC(=O)Nc2cc(Cl)ccc2OC)c(=O)c2ccc(C)nc21`, inactive: 81%; with `Cc1cccc(NC(=O)Cn2c(=O)oc3cc(S(=O)(=O)NCc4ccccc4)ccc32)c1`, inactive: 95%. With `COc1ccc(NC(c2ccc(F)cc2)c2nnc(-c3ccccc3Cl)o2)cc1Cl` (configuration not stated) the figure was inactive: 78%; with `CC(NC(=O)CN(C)S(=O)(=O)c1ccc2c(c1)c(=O)n(C)c(=O)n2C)c1ccccc1` (configuration not stated), inactive: 88%; with `Cc1oc(-c2ccc(C(=O)NCc3ccc(N(C)C)cc3)cc2)nc1COc1ccccc1`, inactive: 61%. With `Cc1ccc2c(c1)c(=O)c(C(=O)c1ccncc1)cn2CC(=O)Nc1c(C)cccc1C` the figure was inactive: 83%. Regarding `Cn1cc(S(=O)(=O)N2CCCCC2)cc1C(=O)N1CCN(c2ccc(F)cc2)CC1`, the survival is inactive: 55%. For the compound `Cc1cc(=O)n(CC(=O)NCCC(C)C)c2c1c(C)nn2C`, the survival is inactive: 75%.

Turning to `Cc1ccc(C)c(S(=O)(=O)c2cnc(SCC(=O)Nc3ccc(F)cc3F)[nH]c2=O)c1`, the survival is active: 43%. For the compound `CCc1ccc(NC(=O)CSc2nccn2C2CCCC2)cc1`, the survival was inactive: 70%.

Take `Cc1ccc2oc(C(=O)Nc3nnc(CC(C)C)s3)cc(=O)c2c1`: the survival is inactive: 63%.

`O=C(CN(c1cccc(Br)c1)S(=O)(=O)c1ccccc1)N1CCOCC1`: the survival is inactive: 73%. With `CCN(CC)c1cc(C)nc2nc(-c3ccc(C)cc3)nn12` the figure was active: 43%.

For the compound `Cc1ccc(CN2CCSc3ccc(C(=O)Nc4ccc(F)cc4F)cc32)cc1`, the survival is inactive: 80%. As for `COc1ccc(N2CCN(C(=O)c3cc4c(=O)n(Cc5ccccc5)ccc4nc3C)CC2)cc1`, the figure is inactive: 95%. As for `CCc1ccc2nc(N3CCC(C(=O)O)CC3)sc2c1`, the figure is inactive: 82%. `COc1cc(CNCc2c(C(=O)O)c(C)n(Cc3cccc(Cl)c3)c2C)cc(OC)c1OC`: the survival is inactive: 86%. As for `COc1ccc(Br)cc1CNC(=O)C(C)n1nc(C)n2c(cc3occc32)c1=O` (configuration not stated), the figure is active: 46%. With `CCC(C(=O)N1CCN(c2cc(Cl)ccc2C)CC1)n1nc(C)n2c(cc3occc32)c1=O` (configuration not stated) the figure was inactive: 69%; with `CCSc1nc2n(n1)C(c1ccc(CC)cc1)C(C(=O)Nc1ccccc1OC)=C(C)N2` (configuration not stated), inactive: 78%.

On to `Cc1c(Cl)cccc1-n1c(CCC(=O)O)ccc1-c1cccs1`, for which the survival is active: 35%. With `CCc1cccc(NC(=O)CN2C(=O)CCc3cc(S(=O)(=O)N4CCOCC4)ccc32)c1` the figure was inactive: 79%; with `CCOc1ccc(C(=O)NCc2ccc3c(c2)CCN3C(=O)c2ccccc2)cc1`, active: -2%; with `COc1ccc(-c2onc(C)c2C)cc1S(=O)(=O)NCc1ccco1`, inactive: 67%. With `CCc1ccc(CNC(=O)c2ccc3c(c2)nc2n3CCC(C)C2)cc1` (configuration not stated) the figure was inactive: 117%; with `COc1cccc(C(=O)Nc2cccc(OCc3cc(=O)n4cc(C)ccc4n3)c2)c1`, inactive: 92%. Regarding `CCCCc1nn2c(=O)cc(COC(=O)COc3ccc(C)cc3)nc2s1`, the survival was inactive: 83%. With `COc1ccc(C)cc1NC(=O)CN(c1ccccc1)S(=O)(=O)N(C)C`, the survival is inactive: 78%. Take `Cc1nc2ccc(NC(=O)NCCCO)cc2s1`: the survival is inactive: 74%. As to `COc1ccc(NC(=O)CN2C(=O)COc3ccc(S(=O)(=O)Nc4ccccc4)cc32)cc1`, the survival is inactive: 96%. As for `CCOC(=O)CN1C(=O)c2ccccc2Sc2ncccc21`, the survival is inactive: 90%. Regarding `COc1ccccc1N(CC(=O)NCCSCc1ccccc1)S(C)(=O)=O`, the survival was inactive: 70%. `CCCCc1nn2c(=O)cc(COC(=O)c3cccc(OC)c3)nc2s1`: the survival is inactive: 117%. Consider `COc1ccc2c(c1)cc1c(=O)n(CC(=O)NCc3ccco3)nc(C)n12`, for which the survival was inactive: 67%. In the case of `COc1ccc(-c2cc(C(F)(F)F)nc(SCC(=O)NCc3ccc(OC)c(OC)c3)n2)cc1`, the survival was inactive: 60%.

As for `CCOC(=O)c1ccc(NC(=O)C2CC(=O)NC(Nc3nc4ccccc4s3)=N2)cc1` (configuration not stated), the survival was inactive: 94%. Turning to `CCc1nnc2c(Nc3cccc(C(C)=O)c3)nc3ccccc3n12`, the survival was inactive: 92%. As for `O=C1C2C3c4ccccc4C(c4ccccc43)C2C(=O)N1C(CO)(CO)CO` (configuration not stated), the figure is inactive: 102%. For `CCCOc1ccc(C(=O)Nc2cccc(NC(=O)c3cccc(Cl)c3)c2)cc1`, the survival was inactive: 70%. As for `CCCCNC(=O)C1CCN(c2nc(OC)nc(OC)n2)CC1`, the figure is inactive: 83%; as for `CCS(=O)(=O)c1ncc(N(Cc2ccco2)Cc2sccc2C)c(C(=O)Nc2ccc(C)cc2C)n1`, active: 53%. Turning to `CCC12CN3CC(C)(CN(C1)C3c1c[nH]c3ccccc13)C2=O` (configuration not stated), the survival was inactive: 82%. `COc1ccc(/C=C\c2onc(C)c2S(=O)(=O)N2CCC(C(=O)Nc3ccc(C)cc3C)CC2)cc1`: the survival was inactive: 60%. As for `CCc1ccc(NC(=O)CSC2=Nc3ccccc3C3=NC(CCC(=O)NCCc4ccccc4)C(=O)N23)cc1` (configuration not stated), the figure is inactive: 81%. As for `CC1=C(C(=O)Nc2ccc(C)cc2C)C(c2ccc(O)cc2)n2nnnc2N1` (configuration not stated), the figure is inactive: 73%; as for `O=C(Nc1ccc(F)cc1Cl)n1ncc2cc(Cl)ccc21`, active: 13%; as for `CCC(=O)N1CCc2cc(S(=O)(=O)NC(CC(C)C)C(=O)Nc3cc(C)ccc3OC)ccc21` (configuration not stated), inactive: 76%. As for `Cc1cccc(NCc2nc3ccccc3n2CCOc2ccccc2C)c1`, the figure is active: 3%.

Take `CC(C)N1C(=O)CSC1c1ccccc1` (configuration not stated): the survival was inactive: 101%. As for `COc1ccc(NC(=O)c2c(C)oc3ccc(O)c(CN4CCCC4)c23)cc1Cl`, the figure is inactive: 80%; as for `COc1cc(C(=O)n2nc(-c3ccco3)nc2NCc2ccc(Cl)cc2)cc(OC)c1OC`, inactive: 82%; as for `CC(=O)c1cccc(Nc2ccc3cc(S(=O)(=O)N4CCC(C)CC4)ccc3n2)c1`, inactive: 92%. As for `O=C(COc1ccccc1-c1nnc(-c2ccccc2)o1)Nc1ccc(Br)cc1F`, the figure is inactive: 84%; as for `CCC(=O)N1CCc2cc(S(=O)(=O)NCCC(=O)Nc3ccc(C)cc3)ccc21`, inactive: 82%; as for `CCCNC(=O)CCNS(=O)(=O)c1ccc2c(c1)c(=O)n(C)c(=O)n2C`, inactive: 104%.

The record behind these values is PubChem BioAssay AID463173 (ICCB-Longwood Screening Facility, Harvard Medical School, 2010).
